# The supplement of paper PMC11417369
# ± gives the standard deviation of the averaged measurements. Some of the results follow.
# System: PfAP2-I AP2 domain 3 (GST-tagged)
# Experiment: gcPBM binding intensity (ln(normalized median fluorescence intensity)); higher = stronger DNA binding
# Procedure, shortened: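 The binding buffer was 1× PBS containing 1% milk, 0.2 mg/ml BSA, 0.5% salmon testes DNA and 0.03% Triton X-100. In it, GST-tagged P. falciparum DNA-binding domains expressed in E. coli were applied for 1 h to an Agilent 4 × 180k array of primer-extended double-stranded 36-bp intergenic genomic probes plus negative controls. Binding intensity, read with Alexa488 anti-GST antibody and a 488 nm scan, is the highest Masliner-normalised natural-log median intensity across replicate spots of either probe orientation.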
row,Sequence,gcPBM binding intensity (ln)
1,AAAAATTAACAAAAGGTGCAAACAAATAGTGGTTTT [GTGCAC_site9998],10.7 ± 0.11
2,CCAATACTGTTTAAATGTACAAGTAGGAGGTTAATT [XGTACX_site7260],7.84 ± 0.67
3,AAATTGTAGAAGCGTATTTCTCGAACTGGATGAATA [CACACA_negctrl_site1373],7.61 ± 0.52
4,AATTAATGGAAACAAGTCAAATGATCTTTATGCATA [TGCATGCA_negctrl_site540],8.04 ± 0.16
5,TAAAGTGTAAAGAAGGTGCTCATTATTTATTTTTTT,8.4 ± 0.31
6,TTTATATCGACTCTTCTTTATATAAGTTGTGATGTT [TGCATGCA_negctrl_site362],7.53 ± 0.28
7,ATATGATATATTTTATGTACATATAAAACATATATA [XGTACX_site4297],7.62 ± 0.35
8,TTATACTTTTTTTCTTGGTGTAGAAAAAAAAGTTAG [CACACA_negctrl_site1207],7.86 ± 0.33
9,TTTATATTAGGTCTTGAACGATTTTCATCATTATTA [TGCATGCA_negctrl_site100],7.3 ± 0.64
10,AAAAAAGAAACAAACACACATACATACAAACAAACA [CACACA_site142],8.18 ± 0.26
11,AGTTTCCTTGAGAAAAGTACGTAATACTACATATAT [XGTACX_site818],7.63 ± 0.47
12,TTTAAAAGATAAAGACTGCACTTTAAGCACACAAAT [GTGCAC_site9752],9.86 ± 0.15
13,AATAAATATATAAATACACACAAACATACAGATATA [CACACA_site6088],7.79 ± 0.64
14,AATTCCTATAATGAGAGTACGCATTAGAACAGTAGG [XGTACX_site5721],8.03 ± 0.5
15,TTGATAAAAAAAAAAAAATAAAAAAAAAATAAAAAA [XGTACX_negctrl_site480],7.6 ± 0.35
16,GATGTGATGTATTTGGTATTTTTCGATGTTGGTAGG [CACACA_negctrl_site355],7.92 ± 0.42
17,TATTATATATCAAAATGTACATTAATTTGAGTAATT [XGTACX_site5434],7.5 ± 0.49
18,TTACCTCTTTGAAATATACACACTAATCATATCAAC [CACACA_site8778],7.88 ± 0.45
19,TTTTTGCTATTCTATTATATATATAATATATTTTAC [CACACA_negctrl_site262],8.02 ± 0.66

row,Sequence,gcPBM binding intensity (ln)
1,TGTTCAGTAGGGCACACACACAACAAAATAAAAAAA [CACACA_site378],8.79 ± 0.16
2,GAGATTTATTTATGTGCACACTAGAACAATTGGATC [CACACA_site2090],9.99 ± 0.42
3,CTTTTTTCAAAACACACACACAAGAAAATATATATA [CACACA_site3109],8.1 ± 0.49
4,TTTTTTTTTTTTGTGCGTACATACCATTTTAATAAT [XGTACX_site2760],8.64 ± 0.8
5,TATAATAAAATATGTACACACATACACCCATATATA [CACACA_site4808],7.84 ± 0.33
6,ACAAGTAATTAAGAGTGTACATAACTATAAATCCAA [XGTACX_site5215],7.88 ± 0.35
7,TGTATGTATGTATTATTTGTTATTTTAATTTTTTTG [TGCATGCA_negctrl_site256],8.46 ± 0.91
8,GATATGATGAGATTGATATTCATAAGAGGATTAATG [GTGCAC_negctrl_site515],7.61 ± 0.47
9,AAAAATGATATGAGTTGTACATAAGTAAGAATTATT [XGTACX_site7089],7.75 ± 0.57
10,TAAAAACGATTTTTTGCACACACATAATAAGCAGAA [CACACA_site3870],9.31 ± 0.29
11,GGACAAGTTAAACGCACACAAATATATACCCCCATA [CACACA_site4996],9.715 ± 0.078
12,ATTATAATTGCATATACACACAAAGGTTCATAACAA [CACACA_site7440],8.05 ± 0.42
13,ACATATATAAAATAATGTACATTTTTAAGAATGCGT [XGTACX_site7654],7.68 ± 0.49
14,AAAAAAAAAAAAAAAAGGGGGGGAGGGATTGAAAAA [CACACA_negctrl_site193],9.64 ± 0.099
15,ACAGTATTTCGAGATGGTACACATATATATATATAT [XGTACX_site6880],9.46 ± 0.38
16,AATGAGGATATATACACACATACATTAAAAAAATAT [CACACA_site1849],7.92 ± 0.77
17,ATGAGTTACATGGGAAAAATATATATATATATATAT [CACACA_negctrl_site579],9.44 ± 0.35
18,TGATAAATATGGAGCACACACACATAAACATACATA [CACACA_site420],8.18 ± 0.26
19,TTTAAAAGATAAAACACACATACTAATAAAAAACAA [CACACA_site2556],7.88 ± 0.52

row,Sequence,gcPBM binding intensity (ln)
1,TTGTATCCTTAATGCATGCACCAAATAACAAAAGTA,9.68 ± 0.34
2,TTGTTGTATTATTTATGTACATATGTATATGTATAT [XGTACX_site1315],7.96 ± 0.47
3,AATCCTTACAGACACACACACACGAATAAATAAAAA [CACACA_site480],8 ± 0.3
4,TTATAATTTTTGAGCACACACAAGCATATATATATA [CACACA_site1798],9.475 ± 0.049
5,TATATATGTATATGTGTGCACCTTATTTCTTTTATT [GTGCAC_site9513],10.2 ± 0.15
6,TATGTATTATCAAAAAGTACTAAAAAAAAATAATAA [XGTACX_site4703],7.91 ± 0.54
7,ATAAATGTTATGCATACACACTTTATACCTATTTAA [CACACA_site5967],8.12 ± 0.7
8,CCTTTTAAGAGTTGCACACGTACAAAAAAAAAAAAA [CACACA_site3492],8.68 ± 0.26
9,ACACATAAATGTATATATATATAAATATATGTATGT [CACACA_negctrl_site1532],7.54 ± 0.3
10,AATAATAAAAAATACGCACACATGTAAACGTATGTT [CACACA_site3336],8.03 ± 0.26
11,GGCGATATAGAACTACGTACTTATACAAATTATAAT [XGTACX_site2307],7.92 ± 0.31
12,ATAGCAATAATGGAAAGTACAAAAAAACTTGTTATA [XGTACX_site8518],7.68 ± 0.64
13,TATATATATATATATAAGCTTATAATAAAACAAAAA [XGTACX_negctrl_site568],9.49 ± 0.52
14,TGTATTAATAAAAATACACACATCATATTATATAAA [CACACA_site3534],7.61 ± 0.41
15,AAAGGGGAGATATGAACACACAAAAAAAAAATATAT [CACACA_site7378],7.9 ± 0.48
16,AGAAAGGATATAAGCGTAGCTATATCATAAAAAATG [GTGCAC_negctrl_site332],7.58 ± 0.74
17,AAATAAAATTTTTGTTGTACTTATTTTTAGTATACT [XGTACX_site4254],7.75 ± 0.38
18,AATATTTACAGACATGCGCACACATAAATAAATAAT [CACACA_site8760],8.46 ± 0.61
